# The RNAGym collection of RNA variant scans (doi:10.1073/pnas.2313332121)
# Variants at the floor of the assay are shown more often than the library holds them.
# B1: TPR 5TU (parent)
# chain: GGAUCUUCUCGAUCUAACAAAAAAGACAAAUCUGCCACAAAGCUUGAGAGCAUCUUCGGAUGCAGAGGCGGCAGCCUUCGGUGGCGCGAUAGCGCCAACGUUCUCAACUAUGACACGCAAAACGCGUGCUCCGUUGAAUGGAGUUUAUCAUG
# Variants of: B1
# Assay: polymerase ribozyme fitness, log enrichment relative to wild type (log ratio); higher = more active; in vitro selection for triplet polymerase activity
# Procedure, shortened: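 Each subunit of a heterodimeric triplet polymerase ribozyme was represented by a PCR-built, transcribed mutant library that underwent triplicate single-round in vitro selection with frozen incubation at −7 °C. Extended constructs were recovered by gel excision, streptavidin-bead capture and RT-PCR, and Illumina sequencing of input and output libraries kept genotypes with ≥10 input reads and ≥1 read per output. Fitness is the logarithm of genotype enrichment relative to wild-type enrichment, from inverse-variance-weighted replicate averages, with a logarithm base of 2.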
row,Variant,polymerase ribozyme fitness (log ratio)
1,GGAUCUUCUCGAUCUAACAAAAAAGACAAAUCUGACACAAAGCUUGAGAGCAUCUUCGGAUGCAGAGGCGGCAGCCUUCGGUGGCGCGAGAACGCCAACGUUCUCAACUAUAACACGCAAAACGCGUGCUGCGUUGAAUGGAAUUUAUCAUG [C35A U90G G92A G112A C131G G143A],≤ -4.2
2,GGAUCUUCUCGAUCUAACAAAAAAGACAAAUCUGACACAAAGCUUGAGAGCAUCUUCGGAUGCAGAGGCGGCAGCCUUCGGUGGCGCAAUAGCGCCAACGUUCUCAACUAUGACACGCAAAACGUGAGCUCCGUGGAAUGGAGUUUAGCAUU [C35A G88A C125U U127A U135G U148G G152U],≤ -4.2
3,GGAUCUUCUCGAUCUAACAAAAAAGACAAAUCUGACACAAAGCUUGAGAGCAUCUUCGGAUGCAGAGGCGGCAGCCUUCGGUGGCGCGAUACCGCCAACGUUCUGAACUAUGACACGCAAAACGCGUGCUCCGUUGAAUGGACUUUUUCAUG [C35A G92C C105G G143C A147U],≤ -4.2
4,GGAUCUUCUCGAUCUAACAAAAAAGACAAAUCUGACACAAAGCUUGAGAGCAUCUUCGGAUGCAGAGGCGGCAGCCUUCGGUAUAGCGAUAGCGCCAACGUUCUCAACUAUGACGCGCAAAACGCGUGCUCCGUUGAAUGGAGUUUAUCAUG [C35A G83A G84U C85A A115G],≤ -4.2
5,GGAUCUUCUCGAUCUAACAAAAAAGACAAAUCUGACACAAAGCUUGAGAGCAUCUUCGUAUGCAGAGGCGGCAGCCUUCGGUGGCGCGAUAGAGCCCACGGUCUCAACUAUGACACGCAAAACGCGUGCUCCGUUGAAUGGAGUUUAUCAUG [C35A G59U C93A A97C U101G],≤ -4.2
6,GGAUCUUCUCGAUCUAACAAAAAAGACAAAUCUGACACAAAGCUUGAGAGCAACUUCGGAUGCAGAGGCGGCAGCCUUCGGUGGCGCGAUAGUGCCAACGUUCUCAACUAUGACACGCAAAACGCGUGCUCCGUUGAAUGGAGUUUGUCAUG [C35A U53A C93U A147G],≤ -4.2
7,GGAUCUUCUCGAUCUAACAAAAAAGACAAAUCUGACACAAAGCUUGAGAGCAUCUUCGGAUGCAGAGGCGGCAGCCUUCGGUGGCGCCAUAGCGCCAACGUUCUCAACUAUGACACGCAAAACGCGUGCUCCGUUGAAUGGAGUUUAUCAUG [C35A G88C],≤ -4.2
8,GGAUCUUCUCGAUCUAACAAAAAAGACAAAUCUGACACAAAGCUUGAGAGCAUCUUCGGAUGCAGAGGCGGCAACCUUCGGUGGCGCGAUAGCGGCAACGUUCUCAACUAUGACACGCAAUACGCGUGCUCCGUUGAAUGGAGUUUAUCAUG [C35A G74A C95G A121U],≤ -4.2
9,GGAUCUUCUCGAUCUAACAAAAAAGACAAAUCUGACACAAAGCUAGAGAGCAUCUUCGGAUGCAGAGGCGGCAGCCUUCGGUGGCGCGAUAGCGCCAACGAUCUCAACUAUGACACGCAAAACGCGUGCUCCGUUGAAUGGAGUUUAUCAUG [C35A U45A U101A],-4.13
10,GGAUCUUCUCGAUCUAACAAAAAAGACAAAUCUGACACAAAGCUUGAGAGCAUCUUCGGAUGCAGAAGCCGCAGCCUUCGGUGGCGCGAUAACGCCAACGUUCUCAACUAUGAUACGCAAAACGCGUGCUCCGUUGAAUGGAGUUUAUACUU [C35A G67A G70C G92A C114U C149A A150C G152U],≤ -4.2
11,GGAUCUUCUCGAUCUAACAAAAAAGACAAAUCUGACACAAAGCUUGAGAGCAUCUUCGGAUGCAGAGGCGGCAGCCUUCGGUGGCGCGAUAGCACCAACGUUCUCAACUAUGACACGCAAAACGCGUGCUCCGUUGAAUGGAGUUUAGCAUG [C35A G94A U148G],≤ -4.2
12,GGAUCUUCUCGAUCUAACAAAAAAGACAAAUCUGGCACUAAGCUUGAGAGCAUCUUCGGAUGCAGAGGCGGUAGCCUUCGGUGGCACGAUAGCGCCAACGUUCUCAACUAUGAAACGCAAAACGCGUGCUCCGUUGAAUGGAGUUUAUCAUG [C35G A39U C72U G86A C114A],≤ -4.2
13,GGAUCUUCUCGAUCUAACAAAAAAGACAAAUCUGACACAAAGCUUGAGAGCAUCUUCGUAUGCAGAGGGGGCAGCCUUCGGUGGCGCGAUAGCGCCAACGUUCUCAACUAUGACACGCAAAACGCGUGCUCCGUUGAAUGGAGUUUAUCAUG [C35A G59U C69G],-2.14
14,GGAUCUUCUCGAUCUAACAAAAAAGACAAAUCUGGCACAAAGCUUGAGAGCAUCUUCGGAUGCAGAGGCGGCAGCCUUCGGUGGCGCGAUAGCGCCAACGUUCUCAACUAUGACACGCAAAACGCGUGCUCCGUUGAAUGGAGUUUAUCAUG [C35G],-3.25
15,GGAUCUUCUCGAUCUAACAAAAAAGACAAAUCUGACACAAAGCUAGGGAGCAUCUUCGGAUGCAUAGGCGGCAGCCUUCGGUGGCGCGAUAGCGCCAACGUUUUCAACUAUGACACGCAAAACGCGUGCUCCGCUGAAUGUAGUUUAUCAUG [C35A U45A A47G G65U C103U U134C G141U],≤ -4.2
16,GGAUCUUCUCGAUCUAACAAAAAAGACAAAUCUGACACAAAGCUUGAGAGCAUCUUCGGAUGCAGAGGCGGCAGCCUUCGGUGGCGCGAUAGCGCCAACGUUCUCAACUAUGACACGCAAAACGCGUGCUCCGUUGAAUGGAGUUUAACAUG [C35A U148A],≤ -4.2
17,GGAUCUUCUCGAUCUAACAAAAAAGACAAAUCUGACACAAAGCUUGAGAGCAUCUUCGGAUGCAGAGGCGGCAGCCUUCGGUGGCGCUAUAGCGGCAACGUUCUUAACUAUGACACGCAAAACGCGUGCUCCGUUGAAUGGAGUGUAUCAUG [C35A G88U C95G C105U U145G],≤ -4.2
18,GGAUCUUCUCGAUCUAACAAAAAAGACAAAUCUGACACAAAGCUUGAGAGCAUCUUCGGAUGCAGAGGCGGCAGCCUUCGGUGGCGCCAUAGCGCCUACGUUCUCAACUAUGACUCGCAAAACCCGUGCUCCGUUGAAUAGAGUUUAUCAUG [C35A G88C A97U A115U G124C G140A],≤ -4.2
19,GGAUCUUCUCGAUCUAACAAAAAAGACAAAUCUGACACAAAGCUUGAGAGCAUCUUCGGAUGCAGAGGCGGCAGCCUUCGGUGGCGCGAUAGCGCCAACGUGCUCAACUAUGACAUGCAAAACGCGUGCUCCGUUGAAUGGAGUUUAUCAUG [C35A U102G C116U],≤ -4.2
